Experiments:
[1] = system: VEGF165 induced proliferation of human umbilical vein endothelial cells; assay: Human Umbilical Cord Endothelial Cell (HUVEC) proliferation assay; format: cell-based; settings: for EC50 compared to Bevacizumab (in words): Example 27, whole 96 well plate used
[2] = target: T1, VEGF165 binding to VEGF R2 (Homo sapiens, UniProt P15692); assay: Modified VEGF R2 receptor binding assay (no pre-incubation); settings: for inhibition achieved against VEGFR2: Example 26 text, summarising Table 8B; for Max. % Inhibition: Table 6B, VEGFR2
T1 construct: host or cells: insect cells, baculovirus (VEGF)
T1 sequence (P15692 27-191 isoform P15692-4): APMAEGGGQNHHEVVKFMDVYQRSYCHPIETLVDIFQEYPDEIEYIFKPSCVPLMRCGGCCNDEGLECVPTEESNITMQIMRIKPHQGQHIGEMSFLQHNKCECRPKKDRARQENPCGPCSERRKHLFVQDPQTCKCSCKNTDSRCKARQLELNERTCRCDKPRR

[3] = target: T2, VEGF165 binding to VEGF R1 (Homo sapiens, UniProt P15692); assay: Modified VEGF R1 receptor binding assay (no pre-incubation); settings: Table 6A; VEGFR1
T2 construct: host or cells: insect cells, baculovirus (VEGF)
T2 sequence (P15692 27-191 isoform P15692-4): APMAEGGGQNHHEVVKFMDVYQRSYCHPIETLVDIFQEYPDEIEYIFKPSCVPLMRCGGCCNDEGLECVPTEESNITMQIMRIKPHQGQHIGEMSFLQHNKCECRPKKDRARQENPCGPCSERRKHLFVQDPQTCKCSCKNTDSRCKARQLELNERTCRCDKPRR

rhVEGF165 = target: T3, rhVEGF165 (Homo sapiens, UniProt P15692); assay: BIACORE T100 SPR binding to VEGF165 at 37° C.; settings: for comment / Ka: Table 11B; for Ka: VEGF 128 nM to 0.03125 nM
T3 construct: made in house; host or cells: HEK293 cells, transient transfection
T3 sequence (P15692 27-191 isoform P15692-4): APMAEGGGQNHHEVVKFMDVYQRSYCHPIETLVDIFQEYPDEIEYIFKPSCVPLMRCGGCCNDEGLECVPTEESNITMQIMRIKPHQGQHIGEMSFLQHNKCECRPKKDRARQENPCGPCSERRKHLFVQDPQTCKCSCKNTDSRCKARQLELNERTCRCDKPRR
Protocol: (§1) The run was carried out at 37° C., using HBS-EP as the running buffer.
as §1, §1, §1, §1

B1: DMS30025: Vk-Vk dAb-Fc-dAb (protein)
chain: DIQMTQSPSSLSASVGDRVTITCRASQWIGPELKWYQQKPGKAPKLLIYHGSILQSGVPSRFSGSGSGTDFTLTISSLQPEDFATYYCQQYMYYPHTFGQGTKVEIKRAS[human IgG1 Fc with T225P (EU numbers) not shown]GSTVAAPSGSTVAAPSGSTVAAPSGSDIQMTQSPSSLSASVGDRVTITCRASQWIGPELKWYQQKPGKAPKLLIYHGSILQSGVPSRFSGSGSGTDFTLTISSLQPEDFATYYCQQYMYYPHTFGQGTKVEIKR
modifications: DT02-K-044-085-AS-Fc (T113P)-GS(TVAAPSGS)x3 Linker-DT02-K-044-085 Vh-Vk dAb-Fc-dAb amino acid sequence identified using molecular biology techniques.
With B1 the “EC50 compared to Bevacizumab (in words)” value [1] was “improved over Bevacizumab” and the “inhibition achieved against VEGFR2” value [2] was 75-87%.

B2: DMS30005: Vk dAb-Fc molecule (protein)
chain: ESTDIQMTQSPSSLSASVGDRVTITCRASQWIGPELKWYQQKPGKAPKLLIYHGSILQSGVPSRFSGSGSGTDFTLTISSLQPEDFATYYCQQYMYYPETFGQGTKVEIKRAA[human IgG1 Fc and a few adjoining residues not shown]
modifications: N-terminal Fc fusion of K-044-251 DAB (AAAS Linker) dAb-Fc amino acid sequence identified using molecular biology techniques.
notes: Vk dAb-Fc molecule
B2 was tested, and the “Max. % Inhibition” value [3] was 82%, the “inhibition of VEGF driven HUVEC proliferation” value ([1]; Example 18) was 70-80% and the “fit of binding data (cell spanning ka, kd, KD)” value (rhVEGF165; Table 5, 37 °C) was “Poor fit to 1:1 model”. The “Max. % Inhibition” value [2] was 86%.

B3: N085T2P: Vk dAb-Fc, DT02-K-085 dAb attached to N-terminus of IgG1Fc by T113P (T2P) or ASTHP linker (protein)
chain: DIQMTQSPSSLSASVGDRVTITCRASQWIGPELKWYQQKPGKAPKLLIYHGSILQSGVPSRFSGSGSGTDFTLTISSLQPEDFATYYCQQYMYYPHTFGQGTKVEIKRAS[human IgG1 Fc with T225P (EU numbers) not shown]
modifications: N-terminal Fc fusion of K-044-085 DAB (ASTHP linker) amino acid sequence identified using molecular biology techniques.
notes: Vk dAb-Fc, DT02-K-085 dAb attached to N-terminus of IgG1Fc by T113P (T2P) or ASTHP linker
B3 was tested, and the comment (rhVEGF165) was “Biphasic curves” and the Ka (rhVEGF165; 37 °C) was 9.40E+06 M − 1 · s − 1.

B4: DMS30008: Vh-Vk dAb-Fc-dAb (protein)
chain: [about 350 residues with a human IgG1 Fc not shown]EVDETYVPKEFNAETFTFHADDIQMTQSPSSLSASVGDRVTITCRASQWIGPELKWYQQKPGKAPKLLIYHGSILQSGVPSRFSGSGSGTDFTLTISSLQPEDFATYYCQQYMYYPETFGQGTKVEIKR
modifications: DOM15-26-597-AS Linker-Fc-Albumin Domain 3 Linker-DT02-K-044-251 Vh-Vk dAb-Fc-dAb amino acid sequence identified using molecular biology techniques.
With B4 the “inhibition achieved against VEGFR2” value [2] was 75-87%.

B5: DMS30009: Vk-Vk dAb-Fc-dAb (protein)
chain: DIQMTQSPSSLSASVGDRVTITCRASQWIGPELKWYQQKPGKAPKLLIYHGSILQSGVPSRFSGSGSGTDFTLTISSLQPEDFATYYCQQYMYYPHTFGQGTKVEIKR[human IgG1 Fc and a few adjoining residues not shown]EVDETYVPKEFNAETFTFHADDIQMTQSPSSLSASVGDRVTITCRASQWIGPELKWYQQKPGKAPKLLIYHGSILQSGVPSRFSGSGSGTDFTLTISSLQPEDFATYYCQQYMYYPHTFGQGTKVEIKR
modifications: DT02-K-044-085-AS Linker-Fc-Albumin Domain 3 Linker-DT02-K-044-085 Vk-Vk dAb-Fc-dAb amino acid sequence identified using molecular biology techniques.
B5 was tested, and the “inhibition achieved against VEGFR2” value [2] was 75-87%.

B6: C085 helical: Vk Fc-dAb, DT02-K-085 dAb attached to IgG1Fc by C-terminal helical linker (protein)
chain: [human IgG1 Fc not shown]KEAAAKEAAAKEAAAKELAAKEAAAKEAAAKEAAAKELAADIQMTQSPSSLSASVGDRVTITCRASQWIGPELKWYQQKPGKAPKLLIYHGSILQSGVPSRFSGSGSGTDFTLTISSLQPEDFATYYCQQYMYYPHTFGQGTKVEIKR
modifications: C-terminal Fc fusion of K-044-085 DAB (Helical Linker) amino acid sequence identified using molecular biology techniques.
notes: Vk Fc-dAb, DT02-K-085 dAb attached to IgG1Fc by C-terminal helical linker
In the case of B6, the comment (rhVEGF165) is reported as “Good fit to the 1:1 binding model” and the Ka (rhVEGF165; 37 °C) is reported as 1.00E+07 M − 1 · s − 1.

B7: DMS30028: Vk dAb-Fc, DT02-K-085 dAb attached to N-terminus of IgG1Fc by IgG1 Hinge linker (protein)
chain: DIQMTQSPSSLSASVGDRVTITCRASQWIGPELKWYQQKPGKAPKLLIYHGSILQSGVPSRFSGSGSGTDFTLTISSLQPEDFATYYCQQYMYYPHTFGQGTKVEIKRV[human IgG1 Fc with changes not shown]
modifications: N-terminal Fc fusion of K-044-085 DAB (IgG1 Hinge) amino acid sequence identified using molecular biology techniques.
notes: Vk dAb-Fc, DT02-K-085 dAb attached to N-terminus of IgG1Fc by IgG1 Hinge linker
With B7 the comment (rhVEGF165) was “Biphasic curves”.

B8: DMS30004: Vk Fc-dAb molecule (protein)
chain: [human IgG1 Fc and a few adjoining residues not shown]GSTVAAPSGSTVAAPSGSTVAAPSGSDIQMTQSPSSLSASVGDRVTITCRASQWIGPELKWYQQKPGKAPKLLIYHGSILQSGVPSRFSGSGSGTDFTLTISSLQPEDFATYYCQQYMYYPKTFGQGTKVEIKR
modifications: C-terminal Fc fusion of K-044-255 DAB (GS(TVAAPSGS)x3 Linker) Fc-dAb amino acid sequence identified using molecular biology techniques.
notes: Vk Fc-dAb molecule
B8 was tested, and the “Max. % Inhibition” value [3] was 87-89% and the “Max. % Inhibition” value [2] was 90%.

B9: DMS30023: Vk-Vk dAb-Fc-dAb (protein)
chain: DIQMTQSPSSLSASVGDRVTITCRASQWIGPELKWYQQKPGKAPKLLIYHGSILQSGVPSRFSGSGSGTDFTLTISSLQPEDFATYYCQQYMYYPHTFGQGTKVEIKRV[human IgG1 Fc with changes not shown]GSTVAAPSGSTVAAPSGSTVAAPSGSDIQMTQSPSSLSASVGDRVTITCRASQWIGPELKWYQQKPGKAPKLLIYHGSILQSGVPSRFSGSGSGTDFTLTISSLQPEDFATYYCQQYMYYPHTFGQGTKVEIKR
modifications: DT02-K-044-085-HingeIgG1Linker-Fc-GS(TVAAPSGS)x3 Linker-DT02-K-044-085 Vh-Vk dAb-Fc-dAb amino acid sequence identified using molecular biology techniques.
B9 was tested, and the “EC50 compared to Bevacizumab (in words)” value [1] was “improved over Bevacizumab”, the “inhibition achieved against VEGFR2” value [2] was 75-87% and the maximal inhibition ([2]; Example 40 text, data set of Table 13A) was 78-84%.

B10: DMS300024: dAb-Fc-dAb molecule (protein)
chain: DIQMTQSPSSLSASVGDRVTITCRASQWIGPELKWYQQKPGKAPKLLIYHGSILQSGVPSRFSGSGSGTDFTLTISSLQPEDFATYYCQQYMYYPHTFGQGTKVEIKRASTA[human IgG1 Fc not shown]GSTVAAPSGSTVAAPSGSTVAAPSGSDIQMTQSPSSLSASVGDRVTITCRASQWIGPELKWYQQKPGKAPKLLIYHGSILQSGVPSRFSGSGSGTDFTLTISSLQPEDFATYYCQQYMYYPHTFGQGTKVEIKR
modifications: DT02-K-044-085-AS-Fc (H112A)-GS(TVAAPSGS)x3 Linker-DT02-K-044-085 Vh-Vk dAb-Fc-dAb amino acid sequence identified using molecular biology techniques.
notes: dAb-Fc-dAb molecule
With B10 the “EC50 compared to Bevacizumab (in words)” value [1] was “improved over Bevacizumab”.

— patent US9499612B2, “Antigen binding constructs” (Glaxo Group Limited, priority 2011, dated 2016)
